Our source for the activation values is PubChem BioAssay AID1346428 (National Center for Advancing Translational Sciences (NCATS), 2018).

The whole screen tested about 48,000 compounds, of which about 1,200 (2.5%) were called active. Not shown: some 2% with an inconclusive outcome.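 The calls were made as follows: active = activation of at least 60% and not above a set upper limit (about 1 call in 100 departs from these limits); inconclusive = activation of 40% to 60%, or above that upper limit; inactive = activation under 40%.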 This is one part of the list.

This assay has as its target Probable G-protein coupled receptor 32 (Homo sapiens) (UniProt O75388). Put plainly: qHTS for Agonists of Human Resolvin D1 Receptor DRV1. Also: 0% is about no effect. Particulars: CHO-K1 GPR32 beta-arrestin PathHunter luminescence, 90 min; at 76.9 µM; active compounds read high; zero percent set by DMSO-only wells. The gist of the method: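 PathHunter beta-arrestin recruitment in CHO-K1 cells stably expressing ProLink-tagged GPR32. Cells were exposed to compound for 90 min at 37 C, then chemiluminescence was read after 1 h detection at ambient temperature; DMSO served as basal control.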
UniProt O75388, sequence (O75388 whole entry, looked up): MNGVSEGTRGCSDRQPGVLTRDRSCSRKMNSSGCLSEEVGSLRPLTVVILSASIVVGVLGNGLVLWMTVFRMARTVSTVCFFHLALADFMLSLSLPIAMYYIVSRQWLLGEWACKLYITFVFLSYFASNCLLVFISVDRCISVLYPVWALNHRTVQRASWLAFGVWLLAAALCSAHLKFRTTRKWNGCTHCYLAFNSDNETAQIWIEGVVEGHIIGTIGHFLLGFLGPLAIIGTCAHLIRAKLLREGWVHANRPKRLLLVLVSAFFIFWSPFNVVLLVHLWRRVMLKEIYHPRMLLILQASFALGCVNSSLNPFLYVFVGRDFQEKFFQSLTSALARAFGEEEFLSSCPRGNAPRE
Regarding `CCc1ccccc1NC(=O)c1ccc2c(c1)CCCN2S(C)(=O)=O`, the activation is inactive: -5.79%.

Regarding `Cc1ccc(-c2onc(C)c2C)cc1S(=O)(=O)Nc1ccccn1`, the activation was inactive: -4.94%.

In the case of `COc1ccc2c(c1)c1c(c(=O)n(CCc3ccccc3)c(=O)n1Cc1cccc(F)c1)n2C`, the activation is inactive: -25.7%.

Consider `CCSc1nc2ccccc2c(OCc2ccc(Cl)cc2)c1C(=O)OC`, for which the activation is inactive: -17.7%.

For the molecule `COc1ccc2c(C)c(CC(=O)NCc3ccccc3Cl)c(=O)oc2c1OC`, the activation was inactive: -2.39%.

Take `CC(C)CN(CCNC(=O)CCN1N=C(c2ccccc2)CCC1=O)CC(C)C`: the activation was inactive: -6.82%.

Take `CN(C)S(=O)(=O)N1CCC(n2c(C(F)(F)F)nc3cccnc32)CC1`: the activation is inactive: 16.2%.

Turning to `CC(C)(C)OC(=O)N1CCC(c2c(C(=O)N3CCN(Cc4ccccc4)CC3)cnn2-c2cccc(Cl)c2)CC1`, the activation was inactive: -10.6%.

Take `COc1ccc(Cn2c(CO)cnc2SCc2ccc(C)cc2)cc1`: the activation was inactive: -4.41%.

In the case of `COc1ccc(CCNC(=O)CN(c2ccccc2)S(=O)(=O)N(C)C)cc1OC`, the activation was inactive: -8.12%.

Turning to `COc1ccc(-c2nc3cc(NC(=O)COc4ccccc4C)ccc3o2)cc1`, the activation is inactive: -3.7%.

Consider `CCc1cccc(C)c1NC(=O)CSc1nc2ccccc2nc1Cc1ccccc1`, for which the activation was inactive: -12.7%.

Consider `Cc1ccc(NC(=O)c2oc3ccc(S(=O)(=O)N4CCC5(CC4)OCCO5)cc3c2C)cc1Cl`, for which the activation was inactive: -14.6%.

Take `CC(=O)N1CCC(N(CCCOC(C)C)C(=O)Nc2ccc(C)c(C)c2)CC1`: the activation is inactive: -12.9%.

`O=C(CN1C(=O)CCSc2ccc(S(=O)(=O)N3CCCC3)cc21)Nc1cccc(F)c1`: the activation is inactive: -15.7%.

Turning to `CCOC(=O)c1c(NC(=O)c2cc(-c3ccc(OC)c(OC)c3)on2)sc2c1CCCC2`, the activation is inactive: 20.2%.

For the molecule `CCc1c(C)sc2c1CCN(Cc1ccc(C#N)cc1)C2c1ccccc1` (stereo not drawn), the activation is inactive: -11.8%.

Regarding `COC(=O)CC1Oc2ccccc2-n2cc(-c3ccc(F)cc3)nc21` (stereo not drawn), the activation is inactive: 45.3%.

With `COc1cc(C(c2c(C)[nH][nH]c2=O)c2c(C)[nH][nH]c2=O)ccc1OC(=O)c1ccccc1OC`, the activation is inactive: -34.3%.

Consider `CCOC(=O)C(C)NC(=O)c1c2c(nc3ccccc13)C(=O)N(C1CCCCC1)C2` (stereo not drawn), for which the activation is inactive: -2.49%.

Regarding `Fc1ccc(Nc2nc3ccccc3n3cnnc23)c(F)c1`, the activation is inactive: 4.55%.

Consider `O=C(c1ccc(F)cc1)n1nc(-c2cccnc2)nc1NCc1ccccc1`, for which the activation was inactive: -21.8%.

Consider `COc1ccc(-n2ccnc(NCCc3ccccc3)c2=O)cc1OC`, for which the activation is inactive: 45.2%.

As to `COc1ccc(Oc2nc3c(c(=O)n(Cc4ccc(Br)cc4)c(=O)n3C)n2C)cc1`, the activation is inactive: 6.15%.

For the molecule `COc1cccc(C(=O)N(Cc2nc(-c3ccc(Cl)cc3)no2)C(C)C)c1OC`, the activation was inactive: 10.1%.

As to `COc1ccc(NC(=O)c2nc(-c3ccc(C)cc3)n3c2CCCCC3)cc1`, the activation is inactive: -24.2%.

With `CCSc1nc2ccccc2c(OCc2ccccc2Cl)c1C(=O)OC`, the activation was inactive: -8.63%.

On to `COc1ccccc1CNC(=O)COCc1cc(-c2cccs2)on1`, for which the activation is inactive: -18.5%.

Take `Cc1ccc(N(CC(C)C)S(=O)(=O)c2nnc(NC(=O)C(C)C)s2)cc1`: the activation is inactive: -13.9%.

Take `CC(C)(C)c1ccc(C(=O)Nc2c(C(=O)c3ccc(F)cc3)oc3ccccc23)cc1`: the activation was inactive: -6.12%.

In the case of `Cc1nn(C(C)C(=O)Nc2ccccc2C(F)(F)F)c(=O)c2c1sc1ccccc12` (stereo not drawn), the activation was inactive: -13%.

As to `Cc1nc2nc(CNC(=O)c3cccc(F)c3)nn2c(C)c1CCC(=O)Nc1cccc(Cl)c1`, the activation is inactive: -6.11%.

Turning to `Cc1ccc(CNC(=O)c2cnc3c(-c4ccc(F)cc4)c(C)nn3c2C)o1`, the activation was inactive: -8.31%.

`COc1ccc(Cl)cc1NC(=O)c1cnc2sc(N3CCOCC3)nn2c1=O`: the activation is inactive: -4.08%.

For `Cc1ccc2oc(-c3ccc(Cl)c(NC(=O)c4cc5ccccc5o4)c3)nc2c1`, the activation was inactive: -10.2%.

With `CN1CCN(CCNC(=O)c2cnn(-c3ccc(Cl)cc3)c2C2CCN(C(=O)OC(C)(C)C)CC2)CC1`, the activation is inactive: -9.45%.

`CCOc1ccc(-c2nonc2NC(=O)c2oc3ccc(CC)cc3c2C)cc1`: the activation was inactive: -23%.

Turning to `CCN(C(=O)C1CCN(S(=O)(=O)c2c(C)noc2/C=C/c2ccc(C)cc2)CC1)c1cccc(C)c1`, the activation was inactive: -4.86%.

In the case of `COc1ccc(NC(=O)CSc2nc3ccccc3c(=O)n2CCC(=O)NC2CCCCC2)c(OC)c1`, the activation is inactive: -5.96%.

As to `CCC(=O)N1CCc2cc(S(=O)(=O)NC(Cc3ccccc3)C(=O)O)ccc21` (stereo not drawn), the activation was inactive: -4.04%.

On to `Cc1ccc(S(=O)(=O)Nc2ccc3nc(-c4cccc(Cl)c4)oc3c2)cc1`, for which the activation was inactive: 5.27%.

Take `COc1ccc(CCNC(=O)C(C)n2nc(C)c3sc4ccccc4c3c2=O)c(OC)c1` (stereo not drawn): the activation is inactive: -13.6%.

Turning to `O=C(CCCCCn1c(=O)c2sccc2n(Cc2ccccc2Cl)c1=O)NCc1ccc2c(c1)OCO2`, the activation was inactive: -28.8%.

As to `COc1ccc(C(=O)N(Cc2ccco2)Cc2ccc(C)o2)cc1`, the activation was inactive: -17.2%.

With `Cc1cccc(-c2nc3nc(C)cc(NC(C)c4ccccc4)n3n2)c1` (stereo not drawn), the activation was inactive: 5.35%.

In the case of `O=C(NCc1ccc(F)cc1)C(=O)NCC(c1ccc2c(c1)OCO2)N1CCOCC1` (stereo not drawn), the activation is inactive: -13.9%.

Consider `COc1ccc(NC(=O)C2CCCN(S(=O)(=O)c3c(C)[nH]c(=O)[nH]c3=O)C2)c(OC)c1` (stereo not drawn), for which the activation is inactive: -8.25%.

Turning to `Cc1ccc2nc(-c3ccc(NC(=O)COc4ccc(Br)cc4Br)cc3)sc2c1`, the activation was inactive: -9.96%.

`COCCCNC(=O)c1cnc2sc(N3CCCCC3)nn2c1=O`: the activation was inactive: 11.5%.

As to `CNC(=O)c1c(NC(=O)/C=C/c2ccccc2)sc2c1CCC2`, the activation is inactive: -16%.

Turning to `COc1cc(NS(=O)(=O)c2ccc(NC(=O)c3ccc(Cl)cc3Cl)cc2)nc(OC)n1`, the activation was inactive: 17.4%.

Turning to `CCOc1ccc(NC(=O)Cn2nnc(-c3nc(-c4ccncc4)no3)c2N)cc1`, the activation is inactive: -11.5%.

As for `Cc1nn2c(C)c(C(=O)NCCc3ccccc3)cnc2c1-c1ccccc1`, the activation was inactive: -10.5%.

Take `CCOC(=O)c1ccc(NC(=O)CC(=O)Nc2ccc3nc4n(c(=O)c3c2)CCCCC4)cc1`: the activation is inactive: -7.47%.

Turning to `CCc1ccc(NCc2cc3cc4c(cc3n(CC(=O)Nc3ccccc3C)c2=O)OCCO4)cc1`, the activation was inactive: -19.8%.

Consider `Cc1ccccc1NC(=O)/C(C#N)=C/c1ccc(Cl)cc1Cl`, for which the activation was inactive: 29.7%.

Consider `COc1ccc(-c2nc3sc(CCNS(=O)(=O)c4ccccc4)c(C)n3n2)cc1`, for which the activation is inactive: 23.5%.

For `CCCOc1ccc(C(=O)Nc2cc3c(cc2N2CCCCC2)n(C)c(=O)n3C)cc1`, the activation was inactive: -6.23%.

Turning to `O=C(NCC1CCN(Cc2ccccc2F)CC1)Nc1ccc(F)c(Cl)c1`, the activation is inactive: 6.41%.

With `Cc1ccc2ncc3c(-c4ccc(F)cc4)nn(CC(=O)Nc4ccccc4C)c3c2c1`, the activation was inactive: -17%.

Consider `Cc1ccc(S(=O)(=O)Cc2nc(-c3ccc(C(=O)NCCCOC(C)C)cc3)oc2C)cc1`, for which the activation was inactive: 17.2%.

As to `Cc1ccc2oc(C(=O)Nc3ccc(S(=O)(=O)Nc4nccc(C)n4)cc3)cc(=O)c2c1`, the activation was inactive: -0.797%.

On to `COc1ccc(Br)cc1CNC(=O)CN1C(=O)c2cccnc2Oc2ccc(C)cc21`, for which the activation is inactive: -4.22%.

With `CC(C)c1ccc(N(CC(=O)O)S(=O)(=O)c2ccc3[nH]c(=O)c(=O)[nH]c3c2)cc1`, the activation is inactive: -7.06%.

As for `CSc1ncc2c(n1)-c1ccccc1N(Cc1ccccc1)S2(=O)=O`, the activation is inactive: -10.9%.

With `CSc1ccc(CCNC(=O)CCCn2c(=O)c3cccn3c3ccccc32)cc1`, the activation is inactive: -26%.

In the case of `CCOc1ccc(C(=O)Nc2cc3c(cc2N2CCCC2)n(C)c(=O)c(=O)n3C)cc1OCC`, the activation was inactive: 10.4%.

Take `O=C1c2[nH]nc(-c3ccc(F)cc3)c2C(c2ccccc2F)N1c1ccccc1` (stereo not drawn): the activation is active: 108%.

As to `Cc1ccc2[nH]c3c(=O)n(CC(=O)Nc4ccc(Br)cc4C)ncc3c2c1`, the activation was inactive: 2.13%.

Consider `COc1ccc(N(CC(=O)Nc2cccc(C(C)=O)c2)S(=O)(=O)c2ccccc2)c(OC)c1`, for which the activation is inactive: -21.1%.

On to `Cc1cc(OCCCn2c(CCNC(=O)C3CCCCC3)nc3ccccc32)ccc1Cl`, for which the activation is inactive: -5.84%.

Turning to `COc1ccc(-c2c3c(=O)n(C)c(=O)n(C)c3c3n2-c2ccccc2NC3c2ccc(O)cc2O)cc1` (stereo not drawn), the activation was inactive: -19.2%.

`COc1ccc2c(Sc3ccc(C)cc3)c(C(=O)NCCc3ccccc3)[nH]c2c1`: the activation was inactive: 4.72%.

Consider `O=C(CSc1nc(-c2cccs2)nc2cc(=O)[nH]n12)Nc1cccc(C(F)(F)F)c1`, for which the activation was inactive: -4.08%.

Turning to `CCOc1ccc(C(=O)N(Cc2cc(OC)c(OC)c(OC)c2)c2ccccn2)cc1`, the activation was inactive: 14.2%.

In the case of `OCc1cnc(SCc2ccc(F)cc2)n1Cc1ccc(F)cc1`, the activation was active: 109%.

As for `O=C(Nc1nc2n(n1)C(c1ccc(Cl)cc1)C=C(c1ccccc1)N2)c1ccco1` (stereo not drawn), the activation was inactive: 7.18%.

`Cc1nn(C)c2c1c(C(F)(F)F)cc(=O)n2C(C)C(=O)NCCc1ccccc1` (stereo not drawn): the activation is inactive: 3.76%.

On to `CCOC(=O)C1=C(C)NC(=O)NC1c1cn(-c2ccccc2)nc1-c1ccc(OC(C)C)cc1` (stereo not drawn), for which the activation is inactive: -6.54%.

On to `COc1ccc(CCNC(c2ccc(F)cc2)c2nnc(-c3ccccc3Cl)o2)cc1OC` (stereo not drawn), for which the activation was inactive: -4.27%.

For `O=C(CN1c2ccccc2S(=O)(=O)c2ccccc21)Nc1ccccc1Cl`, the activation was inactive: -11.5%.

Take `O=C(Cn1cnc2onc(-c3ccc(F)cc3)c2c1=O)Nc1ccc(F)c(Cl)c1`: the activation was inactive: 19.3%.

Regarding `COc1ccccc1N(CC(=O)Nc1ccc2c(c1)OCO2)S(=O)(=O)c1ccc(C)cc1`, the activation is inactive: 3.03%.
